The shares of active, inactive and inconclusive entries below differ from those in the screen. Potencies of inconclusive entries are doubtful fits and often do not repeat. The source made the active and inactive calls. Calls come from the whole dose curve; as a rule, active = well fitted inhibition curve with a large enough effect; inconclusive = small, poorly fitted or top-dose-only effect; inactive = flat fitted curve, though single readings scatter.
What follows are molecules tested on HaCat (assay: Cytotoxic Profiling of Annotated Libraries Using Quantitative High-Throughput Screening (AID 1296008; note: nearly all actives have a fitted effect of over 60% in size)). Settings: Five cell lines viability, CellTiter-Glo ATP luminescence, 48-72 h; max response: active compounds read low.
Procedure, shortened: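 Cytotoxicity was measured as CellTiter-Glo ATP luminescence, read after 10 min at room temperature. Compound treatment of the cells lasted 48 or 72 hr at 37 degrees Celsius in a qHTS format.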
% is set by controls: 0 for no effect and ±100 for the full control effect; potency is the fitted concentration of half-maximal effect; tags give direction and shape of the fitted curve.

Structure (SMILES)	Potency	max response	outcome
C[C@H]1O[C@@H](O[C@H]2[C@@H](O)C[C@H](O[C@H]3[C@@H](O)C[C@H](O[C@H]4CC[C@@]5(C)[C@H](CC[C@@H]6[C@@H]5CC[C@]5(C)[C@@H](C7=CC(=O)OC7)CC[C@]65O)C4)O[C@@H]3C)O[C@@H]2C)C[C@H](O)[C@@H]1O	inconclusive: 0.172 µM [inhibitor, full curve, poor fit]	–	–
CC[n+]1c(-c2ccccc2)c2cc(N)ccc2c2ccc(N)cc21	inconclusive: 33.5 µM [inhibitor, single point]	–	–
C[C@H]1CCC/C=C/C2C[C@H](O)C[C@H]2[C@H](O)/C=C/C(=O)O1 (some centres undefined)	active: 0.184 µM	–	–
Cc1nnc2n1-c1sc(CCC(=O)N3CCOCC3)cc1C(c1ccccc1Cl)=NC2	inconclusive: 2.66 µM [inhibitor, partial curve, poor fit]	–	–
CCNc1nc(Cl)nc(NCC)n1	inconclusive: 2.66 µM [inhibitor, single point]	–	–
Oc1cccc2cccnc12	inconclusive: 68.6 µM [inhibitor, single point]	–	–
Oc1ccc2c3c1O[C@H]1[C@@H](O)C=C[C@H]4[C@@H](C2)NCC[C@@]341	–	inactive: -5.53%	–
CCCCC/C=C\C/C=C\C/C=C\C/C=C\CCCC(=O)NCC(=O)O	inconclusive: 5.96 µM [inhibitor, partial curve, poor fit]	–	–
CCCN1CCC[C@@H]2Cc3[nH]ncc3C[C@H]21	inconclusive: 2.66 µM [inhibitor, full curve]	–	–
C[C@H]1[C@@H]2Cc3ccc(O)cc3[C@@]1(C)CCN2C	inconclusive: 130 µM [inhibitor, single point]	–	–
COc1cc(C[C@@H](C)N)c(OC)cc1C	inconclusive: 82 µM [inhibitor, single point]	–	–
Cn1cc(C2=C(c3cn(C4CCN(Cc5ccccn5)CC4)c4ccccc34)C(=O)NC2=O)c2ccccc21	inconclusive: 5.96 µM [inhibitor, single point]	–	–
COCCOCCO	inconclusive: 0.172 µM [inhibitor, full curve, poor fit]	–	–
O=C(Nc1ccncc1)C(=O)c1cn(Cc2ccc(Cl)cc2)c2ccccc12	inconclusive: 1.66 µM [inhibitor, full curve, poor fit]	–	–
O=[N+]([O-])c1ccc([As](=O)(O)O)cc1	–	–	inactive
CN(C)c1cc2c(cc1Sc1nc3c(N)nccc3n1CCNCC(C)(C)C)OCO2	active: 0.461 µM	–	–
Cc1ncc(CNC(=O)N(CCCl)N=O)c(N)n1	inconclusive: 33.5 µM [inhibitor, single point]	–	–
Nc1nc(N)nc(NC2CC2)n1	inconclusive: 1.88 µM [inhibitor, partial curve]	–	–
O=C1NCN(c2ccccc2)C12CCN(CCCOc1ccc(F)cc1)CC2	inconclusive: 29.9 µM [inhibitor, single point]	–	–
CN1C[C@@H](NS(=O)(=O)N(C)C)C[C@@H]2c3cccc4c3c(cn4C)C[C@H]21	–	–	inactive

Structure (SMILES)	Potency	max response	outcome
CC(C)(C)NC[C@H](O)c1ccc(O)cc1Cl	inconclusive: 0.116 µM [inhibitor, full curve, poor fit]	–	–
C/C=C(/C)C(=O)O[C@H]1C(C)=C2[C@H]([C@@H]1OC(=O)CCCCCCC)[C@@](C)(OC(C)=O)C[C@H](OC(=O)CCC)[C@@]1(O)[C@H]2OC(=O)[C@@]1(C)O	inconclusive: 16.4 µM [inhibitor, partial curve, poor fit]	–	–
CCOP(=S)(OCC)Oc1cc(C)nc(C(C)C)n1	–	inactive: 0.572%	–
CCCCOC(=O)c1ccccc1C(=O)OCc1ccccc1	inconclusive: 68.6 µM [inhibitor, single point]	–	–
CCN(CC)C(C)C(=O)c1ccccc1 (centres undefined)	–	–	inactive
c1ccc2c(c1)OCC(C1=NCCN1)O2 (centres undefined)	inconclusive: 29.9 µM [inhibitor, single point]	–	–
N[C@@H](Cc1ccc(N(CCCl)CCCl)cc1)C(=O)O	inconclusive: 33.5 µM [inhibitor, single point]	–	–
C[N+](C)(C)CCOC(=O)C(O)(c1ccccc1)c1ccccc1	–	inactive: 1.68%	–
O=P1(NCCCl)OCCCN1CCCl (centres undefined)	inconclusive: 37.2 µM [inhibitor, partial curve, poor fit]	–	–
CS(=O)(=O)c1ccc(C(=O)C2C(=O)CCCC2=O)c([N+](=O)[O-])c1	inconclusive: 49.5 µM [inhibitor, single point]	–	–
CC[C@@]1(O)C(=O)OCc2c1cc1n(c2=O)Cc2cc3ccccc3nc2-1	active: 0.0469 µM	–	–
O=C(O)COc1nc(Cl)c(Cl)cc1Cl	inconclusive: 2.48 µM [inhibitor, partial curve]	–	–
C[C@@H]1C[C@@H]([C@H](O)CC2CC(=O)NC(=O)C2)C(=O)[C@@H](C)C1	inconclusive: 5.31 µM [inhibitor, full curve]	–	–
CC1=C(O)C(=O)C=C2C1=CC=C1[C@@]2(C)CC[C@@]2(C)[C@@H]3C[C@](C)(C(=O)O)CC[C@]3(C)CC[C@]12C	active: 2.64 µM	–	–
Oc1ccc(Cl)cc1Cc1ccccc1	inconclusive: 21.9 µM [inhibitor, partial curve]	–	–
O=C(O)CCCc1ccc(N(CCCl)CCCl)cc1	inconclusive: 0.168 µM [inhibitor, full curve, poor fit]	–	–
Cc1cccc(C)c1NC1=NCCCS1	–	inactive: -7.27%	–
NNc1ccccc1	–	inactive: 1.05%	–
COc1cccc([C@@]2(O)CCCC[C@@H]2CN(C)C)c1	inconclusive: 5.96 µM [inhibitor, single point]	–	–
